# Lines with a small IC50 respond at low doses; fits outside the tested doses are given as limits. AUC is the area under the same curve over the 256-fold range up to the top dose, as a fraction: 1 means no effect, lower means more sensitive. For part of these data: Where the top dose is marked as inferred, it comes from the curve model; the source does not state it.
# What was measured:
# Experiment in all cases: Viability of human cancer cell lines after 72 h of drug (GDSC screen)
# [1] = compound: CC[C@H](CO)Nc1nc(NCc2ccccc2)c2ncn(C(C)C)c2n1 [Roscovitine]; conditions: top dose 16 µM; top dose inferred
# Description: (§1)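 Human cancer cell lines in 384-well plates, medium with 10% serum, drug for 72 h over a 256-fold dose range (nine 2-fold or five 4-fold steps up to the top dose). Adherent lines were fixed and stained with the nucleic acid dye Syto60, suspension lines read with resazurin; signal relative to control wells, capped at 0 and 100%. One two-parameter sigmoid per drug and line, fitted in a mixed model over all curves with the slope shared within a line.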
# [2] = compound: CO[C@@H]1[C@H](N(C)C(=O)c2ccccc2)C[C@H]2O[C@]1(C)n1c3ccccc3c3c4c(c5c6ccccc6n2c5c31)C(=O)NC4 [Midostaurin]; conditions: top dose 0.512 µM; top dose inferred
# Description: as §1
# [3] = compound: CO[C@@]12[C@H](COC(N)=O)C3=C(C(=O)C(C)=C(N)C3=O)N1C[C@@H]1N[C@@H]12 [Mitomycin C]; conditions: top dose 16 µM
# Description: as §1
# [4] = compound: COc1cc(Nc2c(C#N)cnc3cc(OCCCN4CCN(C)CC4)c(OC)cc23)c(Cl)cc1Cl [Bosutinib]; conditions: top dose 2 µM
# Description: as §1
# [5] = compound: Cc1ccc(C(=O)Nc2cccc(C(F)(F)F)c2)cc1Nc1nc(-c2cccnc2)nc2c1cnn2C [NVP-BHG712]; conditions: top dose 10.24 µM; top dose inferred
# Description: as §1
# [6] = compound: O=C(O)CNC(=O)c1c(O)c2ccccc2n(Cc2ccccc2)c1=O [IOX2]; conditions: top dose 0.1 µM; top dose inferred
# Description: as §1
cell line,measurement,setting,value
"EB2 (Burkitt lymphoma, suspension)",AUC,[1],0.986
same,IC50,[1],> 16000 nM
same,AUC,[2],0.957
same,IC50,[2],> 512 nM
same,AUC,[3],0.201
same,IC50,[3],146 nM
same,AUC,[4],0.99
same,IC50,[4],> 2000 nM
same,AUC,[5],0.644
same,IC50,[5],1540 nM
same,AUC,[6],0.983
same,IC50,[6],> 100 nM
"EB-3 (Burkitt lymphoma, suspension)",AUC,[1],0.896
same,IC50,[1],> 16000 nM
same,AUC,[2],0.956
same,IC50,[2],> 512 nM
same,AUC,[3],0.674
same,IC50,[3],3330 nM
same,AUC,[4],0.984
same,IC50,[4],> 2000 nM
same,AUC,[5],0.826
same,IC50,[5],7620 nM
same,AUC,[6],0.979
same,IC50,[6],> 100 nM
"EC-GI-10 (oesophagus, adherent)",AUC,[1],0.989
same,IC50,[1],> 16000 nM
same,AUC,[2],0.986
same,IC50,[2],> 512 nM
same,AUC,[3],0.755
same,IC50,[3],5360 nM
same,AUC,[4],0.876
same,IC50,[4],1950 nM
same,AUC,[5],0.958
same,IC50,[5],> 10200 nM
same,AUC,[6],0.988
same,IC50,[6],> 100 nM
"EJM (lymphoid neoplasm, semi-adherent)",AUC,[1],0.969
same,IC50,[1],> 16000 nM
same,AUC,[2],0.981
same,IC50,[2],> 512 nM
same,AUC,[3],0.625
same,IC50,[3],2080 nM
same,AUC,[4],0.893
same,IC50,[4],1710 nM
same,AUC,[5],0.898
same,IC50,[5],9230 nM
same,AUC,[6],0.992
same,IC50,[6],> 100 nM
"EM-2 (chronic myeloid leukaemia, suspension)",AUC,[1],0.976
same,IC50,[1],> 16000 nM
same,AUC,[2],0.943
same,IC50,[2],> 512 nM
same,AUC,[3],0.502
same,IC50,[3],1010 nM
same,AUC,[4],0.601
same,IC50,[4],246 nM
same,AUC,[5],0.155
same,IC50,[5],46.1 nM
same,AUC,[6],0.98
same,IC50,[6],> 100 nM
"ES6 (Ewing sarcoma, adherent)",AUC,[1],0.922
same,IC50,[1],> 16000 nM
same,AUC,[2],0.934
same,IC50,[2],> 512 nM
same,AUC,[3],0.454
same,IC50,[3],728 nM
same,AUC,[4],0.932
same,IC50,[4],> 2000 nM
same,AUC,[5],0.958
same,IC50,[5],> 10200 nM
same,AUC,[6],0.942
same,IC50,[6],> 100 nM
"ES8 (Ewing sarcoma, adherent)",AUC,[1],0.9
same,IC50,[1],> 16000 nM
same,AUC,[2],0.867
same,IC50,[2],407 nM
same,AUC,[3],0.074
same,IC50,[3],< 62.5 nM
same,AUC,[4],0.965
same,IC50,[4],> 2000 nM
same,AUC,[5],0.841
same,IC50,[5],6370 nM
same,AUC,[6],0.986
same,IC50,[6],> 100 nM
"ES-2 (ovary, adherent)",AUC,[1],0.953
same,IC50,[1],> 16000 nM
same,AUC,[2],0.991
same,IC50,[2],> 512 nM
same,AUC,[3],0.518
same,IC50,[3],1110 nM
same,AUC,[4],0.719
same,IC50,[4],476 nM
same,AUC,[5],0.871
same,IC50,[5],7670 nM
same,AUC,[6],0.988
same,IC50,[6],> 100 nM
"ETK-1 (biliary tract, adherent)",AUC,[1],0.935
same,IC50,[1],> 16000 nM
same,AUC,[2],0.841
same,IC50,[2],426 nM
same,AUC,[3],0.218
same,IC50,[3],130 nM
same,AUC,[4],0.917
same,IC50,[4],> 2000 nM
same,AUC,[5],0.834
same,IC50,[5],7930 nM
same,AUC,[6],0.967
same,IC50,[6],> 100 nM
"EVSA-T (breast, adherent)",AUC,[1],0.98
same,IC50,[1],> 16000 nM
same,AUC,[2],0.989
same,IC50,[2],> 512 nM
same,AUC,[3],0.569
same,IC50,[3],1500 nM
same,AUC,[4],0.987
same,IC50,[4],> 2000 nM
same,AUC,[5],0.932
same,IC50,[5],> 10200 nM
same,AUC,[6],0.986
same,IC50,[6],> 100 nM
"EW-1 (Ewing sarcoma, semi-adherent)",AUC,[1],0.942
same,IC50,[1],> 16000 nM
same,AUC,[2],0.897
same,IC50,[2],> 512 nM
same,AUC,[3],0.164
same,IC50,[3],106 nM
same,AUC,[4],0.978
same,IC50,[4],> 2000 nM
same,AUC,[5],0.956
same,IC50,[5],> 10200 nM
same,AUC,[6],0.988
same,IC50,[6],> 100 nM
"EW-3 (Ewing sarcoma, adherent)",AUC,[1],0.984
same,IC50,[1],> 16000 nM
same,AUC,[2],0.953
same,IC50,[2],> 512 nM
same,AUC,[3],0.217
same,IC50,[3],129 nM
same,AUC,[4],0.848
same,IC50,[4],1830 nM
same,AUC,[5],0.911
same,IC50,[5],> 10200 nM
same,AUC,[6],0.97
same,IC50,[6],> 100 nM
"EW-11 (Ewing sarcoma, adherent)",AUC,[1],0.972
same,IC50,[1],> 16000 nM
same,AUC,[2],0.95
same,IC50,[2],> 512 nM
same,AUC,[3],0.389
same,IC50,[3],453 nM
same,AUC,[4],0.888
same,IC50,[4],> 2000 nM
same,AUC,[5],0.955
same,IC50,[5],> 10200 nM
same,AUC,[6],0.977
same,IC50,[6],> 100 nM
"EW-13 (Ewing sarcoma, suspension)",AUC,[1],0.974
same,IC50,[1],> 16000 nM
same,AUC,[2],0.845
same,IC50,[2],432 nM
same,AUC,[3],0.14
same,IC50,[3],63.5 nM
same,AUC,[4],0.978
same,IC50,[4],> 2000 nM
same,AUC,[5],0.517
same,IC50,[5],718 nM
same,AUC,[6],0.984
same,IC50,[6],> 100 nM
"EW-16 (Ewing sarcoma, adherent)",AUC,[1],0.942
same,IC50,[1],> 16000 nM
same,AUC,[2],0.824
same,IC50,[2],322 nM
same,AUC,[3],0.065
same,IC50,[3],< 62.5 nM
same,AUC,[4],0.79
same,IC50,[4],932 nM
same,AUC,[5],0.964
same,IC50,[5],> 10200 nM
same,AUC,[6],0.98
same,IC50,[6],> 100 nM
"EW-18 (Ewing sarcoma, suspension)",AUC,[1],0.984
same,IC50,[1],> 16000 nM
same,AUC,[2],0.848
same,IC50,[2],422 nM
same,AUC,[3],0.578
same,IC50,[3],1660 nM
same,AUC,[4],0.938
same,IC50,[4],> 2000 nM
same,AUC,[5],0.864
same,IC50,[5],10000 nM
same,AUC,[6],0.979
same,IC50,[6],> 100 nM
"EW-24 (Ewing sarcoma, semi-adherent)",AUC,[1],0.99
same,IC50,[1],> 16000 nM
same,AUC,[2],0.984
same,IC50,[2],> 512 nM
same,AUC,[3],0.47
same,IC50,[3],838 nM
same,AUC,[4],0.943
same,IC50,[4],> 2000 nM
same,AUC,[5],0.884
same,IC50,[5],8710 nM
same,AUC,[6],0.992
same,IC50,[6],> 100 nM
"EoL-1-cell (haematopoietic neoplasm, suspension)",AUC,[1],0.988
same,IC50,[1],> 16000 nM
same,AUC,[2],0.569
same,IC50,[2],48.3 nM
same,AUC,[3],0.195
same,IC50,[3],143 nM
same,AUC,[4],0.848
same,IC50,[4],1230 nM
same,AUC,[5],0.019
same,IC50,[5],< 40 nM
same,AUC,[6],0.987
same,IC50,[6],> 100 nM
"Farage (B-cell lymphoma, suspension)",AUC,[1],0.938
same,IC50,[1],> 16000 nM
same,AUC,[2],0.962
same,IC50,[2],> 512 nM
same,AUC,[3],0.267
same,IC50,[3],252 nM
same,AUC,[4],0.772
same,IC50,[4],639 nM
same,AUC,[5],0.323
same,IC50,[5],228 nM
same,AUC,[6],0.969
same,IC50,[6],> 100 nM
